PMC12820563, “FoxP3 forms a head-to-head dimer in vivo and stabilizes its multimerization on adjacent microsatellites”
Some of the results follow.

Molecular target: T1, MBP-FoxP1dN (Mus musculus, UniProt P58462 326-579)
T1 sequence: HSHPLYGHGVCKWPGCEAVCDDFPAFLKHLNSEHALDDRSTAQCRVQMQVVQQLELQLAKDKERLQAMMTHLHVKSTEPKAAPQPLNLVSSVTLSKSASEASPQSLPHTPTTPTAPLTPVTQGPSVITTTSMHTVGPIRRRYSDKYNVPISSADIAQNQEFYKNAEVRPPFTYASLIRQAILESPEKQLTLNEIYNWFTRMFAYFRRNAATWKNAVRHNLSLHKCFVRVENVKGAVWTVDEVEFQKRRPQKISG
Assay: PD-seq (MBP pull-down with sequencing); 20 mM Tris-HCl pH 7.5, 100 mM NaCl, 1.5 mM MgCl2, 0.4 uM protein, 0.1 uM dsDNA library, 30 min, room temperature, amylose pull-down; high values mean tight binding
Conditions: protein: recombinant; tags: His6-MBP; chain copies: 2; dsDNA, one strand shown
Method in brief: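 Binding is the reads-per-million enrichment of pull-down relative to input, pooled across replicates. For this, 0.4 µM His6-MBP-tagged mouse FoxP3 or FoxP1 fragment lacking the N-terminus, made in E. coli, was incubated with 0.1 µM Klenow-filled double-stranded degenerate DNA library for 30 min at room temperature in Tris pH 7.5 buffer with NaCl and MgCl2. Complexes bound to amylose resin were washed three times before proteinase K released the DNA for PCR barcoding and Illumina sequencing.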

Going from “GATGATTGTTCTCCCAGCTGATGAATTTTTTTCATCGAGTAAACAAATTTTCCTAATCTTTCTGTTCAAGCGCCATCTAC” to “GATGATTGTTCTCCCAGCTGATGAATTGAGAGGATCGAGTAAACAAATTTTCCTAATCTTTCTGTTCAAGCGCCATCTAC”, the binding signal falls from 1.02 RPM ratio (pull-down/input) to 0.854 RPM ratio (pull-down/input).

First: GATGATTGTTCTCCCAGCTGATGAATTCATGGTTTCGAGTAAACAAATTTTCCTAATCTTTCTGTTCAAGCGCCATCTAC
Second: GATGATTGTTCTCCCAGCTGATGAATTTTTAAATTCGAGTAAACAAATTTTCCTAATCTTTCTGTTCAAGCGCCATCTAC
The binding signal of the first is lower: 0.912 RPM ratio (pull-down/input) for the first, 1.09 RPM ratio (pull-down/input) for the second.

Going from “GATGATTGTTCTCCCAGCTGATGAATTTGTCGAATCGAGTAAACAAATTTTCCTAATCTTTCTGTTCAAGCGCCATCTAC” to “GATGATTGTTCTCCCAGCTGATGAATTATGATTATCGAGTAAACAAATTTTCCTAATCTTTCTGTTCAAGCGCCATCTAC”, the binding signal rises from 1.11 RPM ratio (pull-down/input) to 1.51 RPM ratio (pull-down/input).

First: GATGATTGTTCTCCCAGCTGATGAATTTCGGTAATCGAGTAAACAAATTTTCCTAATCTTTCTGTTCAAGCGCCATCTAC
Second: GATGATTGTTCTCCCAGCTGATGAATTCTATTTATCGAGTAAACAAATTTTCCTAATCTTTCTGTTCAAGCGCCATCTAC
The binding signal of the first is lower: 1.38 RPM ratio (pull-down/input) for the first, 2.58 RPM ratio (pull-down/input) for the second.

First: GATGATTGTTCTCCCAGCTGATGAATTGGGCTGGTCGAGTAAACAAATTTTCCTAATCTTTCTGTTCAAGCGCCATCTAC
Second: GATGATTGTTCTCCCAGCTGATGAATTGATGTGCTCGAGTAAACAAATTTTCCTAATCTTTCTGTTCAAGCGCCATCTAC
The binding signal of the first is lower: 0.795 RPM ratio (pull-down/input) for the first, 1.13 RPM ratio (pull-down/input) for the second.

Compared with “GATGATTGTTCTCCCAGCTGATGAATTAGGCGCTTCGAGTAAACAAATTTTCCTAATCTTTCTGTTCAAGCGCCATCTAC”, “GATGATTGTTCTCCCAGCTGATGAATTATAATGCTCGAGTAAACAAATTTTCCTAATCTTTCTGTTCAAGCGCCATCTAC” is higher in binding signal: 0.907 RPM ratio (pull-down/input) for the first, 1.31 RPM ratio (pull-down/input) for the second.

Going from “GATGATTGTTCTCCCAGCTGATGAATTATTCCCTTCGAGTAAACAAATTTTCCTAATCTTTCTGTTCAAGCGCCATCTAC” to “GATGATTGTTCTCCCAGCTGATGAATTGAACGAATCGAGTAAACAAATTTTCCTAATCTTTCTGTTCAAGCGCCATCTAC”, the binding signal falls from 1.01 RPM ratio (pull-down/input) to 0.893 RPM ratio (pull-down/input).

Compared with “GATGATTGTTCTCCCAGCTGATGAATTGCCATCTTCGAGTAAACAAATTTTCCTAATCTTTCTGTTCAAGCGCCATCTAC”, “GATGATTGTTCTCCCAGCTGATGAATTACTCCTATCGAGTAAACAAATTTTCCTAATCTTTCTGTTCAAGCGCCATCTAC” is higher in binding signal: 0.967 RPM ratio (pull-down/input) for the first, 0.977 RPM ratio (pull-down/input) for the second.

Compared with “GATGATTGTTCTCCCAGCTGATGAATTCTGTGGGTCGAGTAAACAAATTTTCCTAATCTTTCTGTTCAAGCGCCATCTAC”, “GATGATTGTTCTCCCAGCTGATGAATTTCCGCGATCGAGTAAACAAATTTTCCTAATCTTTCTGTTCAAGCGCCATCTAC” is higher in binding signal: 0.836 RPM ratio (pull-down/input) for the first, 0.858 RPM ratio (pull-down/input) for the second.

First: GATGATTGTTCTCCCAGCTGATGAATTTTCTAACTCGAGTAAACAAATTTTCCTAATCTTTCTGTTCAAGCGCCATCTAC
Second: GATGATTGTTCTCCCAGCTGATGAATTCAAGATTTCGAGTAAACAAATTTTCCTAATCTTTCTGTTCAAGCGCCATCTAC
The binding signal of the first is higher: 0.937 RPM ratio (pull-down/input) for the first, 0.867 RPM ratio (pull-down/input) for the second.

First: GATGATTGTTCTCCCAGCTGATGAATTAGAGATTTCGAGTAAACAAATTTTCCTAATCTTTCTGTTCAAGCGCCATCTAC
Second: GATGATTGTTCTCCCAGCTGATGAATTGTCCTACTCGAGTAAACAAATTTTCCTAATCTTTCTGTTCAAGCGCCATCTAC
The binding signal of the first is lower: 0.943 RPM ratio (pull-down/input) for the first, 1 RPM ratio (pull-down/input) for the second.

First: GATGATTGTTCTCCCAGCTGATGAATTTACAAGCTCGAGTAAACAAATTTTCCTAATCTTTCTGTTCAAGCGCCATCTAC
Second: GATGATTGTTCTCCCAGCTGATGAATTAAGGCGGTCGAGTAAACAAATTTTCCTAATCTTTCTGTTCAAGCGCCATCTAC
The binding signal of the first is higher: 1.25 RPM ratio (pull-down/input) for the first, 0.859 RPM ratio (pull-down/input) for the second.

Compared with “GATGATTGTTCTCCCAGCTGATGAATTTGGCGAGTCGAGTAAACAAATTTTCCTAATCTTTCTGTTCAAGCGCCATCTAC”, “GATGATTGTTCTCCCAGCTGATGAATTCGAAGCATCGAGTAAACAAATTTTCCTAATCTTTCTGTTCAAGCGCCATCTAC” is higher in binding signal: 0.827 RPM ratio (pull-down/input) for the first, 1.05 RPM ratio (pull-down/input) for the second.

First: GATGATTGTTCTCCCAGCTGATGAATTGTGCAAATCGAGTAAACAAATTTTCCTAATCTTTCTGTTCAAGCGCCATCTAC
Second: GATGATTGTTCTCCCAGCTGATGAATTCACTGGATCGAGTAAACAAATTTTCCTAATCTTTCTGTTCAAGCGCCATCTAC
The binding signal of the first is higher: 1.25 RPM ratio (pull-down/input) for the first, 0.843 RPM ratio (pull-down/input) for the second.

Compared with “GATGATTGTTCTCCCAGCTGATGAATTCCTGTTATCGAGTAAACAAATTTTCCTAATCTTTCTGTTCAAGCGCCATCTAC”, “GATGATTGTTCTCCCAGCTGATGAATTGACATCATCGAGTAAACAAATTTTCCTAATCTTTCTGTTCAAGCGCCATCTAC” is lower in binding signal: 1.65 RPM ratio (pull-down/input) for the first, 1.43 RPM ratio (pull-down/input) for the second.

Compared with “GATGATTGTTCTCCCAGCTGATGAATTTTAGACGTCGAGTAAACAAATTTTCCTAATCTTTCTGTTCAAGCGCCATCTAC”, “GATGATTGTTCTCCCAGCTGATGAATTAATTTCTTCGAGTAAACAAATTTTCCTAATCTTTCTGTTCAAGCGCCATCTAC” is higher in binding signal: 0.944 RPM ratio (pull-down/input) for the first, 0.986 RPM ratio (pull-down/input) for the second.

First: GATGATTGTTCTCCCAGCTGATGAATTTCGCCAATCGAGTAAACAAATTTTCCTAATCTTTCTGTTCAAGCGCCATCTAC
Second: GATGATTGTTCTCCCAGCTGATGAATTACAAAGGTCGAGTAAACAAATTTTCCTAATCTTTCTGTTCAAGCGCCATCTAC
The binding signal of the first is lower: 1.01 RPM ratio (pull-down/input) for the first, 1.12 RPM ratio (pull-down/input) for the second.

Going from “GATGATTGTTCTCCCAGCTGATGAATTTAGGGGGTCGAGTAAACAAATTTTCCTAATCTTTCTGTTCAAGCGCCATCTAC” to “GATGATTGTTCTCCCAGCTGATGAATTTGACGCCTCGAGTAAACAAATTTTCCTAATCTTTCTGTTCAAGCGCCATCTAC”, the binding signal rises from 0.799 RPM ratio (pull-down/input) to 0.936 RPM ratio (pull-down/input).

First: GATGATTGTTCTCCCAGCTGATGAATTGCAGCGCTCGAGTAAACAAATTTTCCTAATCTTTCTGTTCAAGCGCCATCTAC
Second: GATGATTGTTCTCCCAGCTGATGAATTTTTCCTGTCGAGTAAACAAATTTTCCTAATCTTTCTGTTCAAGCGCCATCTAC
The binding signal of the first is higher: 0.997 RPM ratio (pull-down/input) for the first, 0.903 RPM ratio (pull-down/input) for the second.

Compared with “GATGATTGTTCTCCCAGCTGATGAATTTATCCGCTCGAGTAAACAAATTTTCCTAATCTTTCTGTTCAAGCGCCATCTAC”, “GATGATTGTTCTCCCAGCTGATGAATTCTGTCAGTCGAGTAAACAAATTTTCCTAATCTTTCTGTTCAAGCGCCATCTAC” is lower in binding signal: 0.989 RPM ratio (pull-down/input) for the first, 0.879 RPM ratio (pull-down/input) for the second.
